# Data reported in paper PMC7879653, “PSF functions as a repressor of hypoxia-induced angiogenesis by promoting mitochondrial function” (Cell Communication and Signaling : CCS, 2021).
# T1: PSF (polypyrimidine tract-binding protein-associated splicing factor), endogenous (human (endogenous in HRMECs), UniProt P23246 1-707)
# T1 construct: PSF, endogenous in human retinal microcapillary endothelial cells (HRMECs); source: endogenous, HRMEC total cell lysate or nuclear lysate
# T1 sequence (looked up): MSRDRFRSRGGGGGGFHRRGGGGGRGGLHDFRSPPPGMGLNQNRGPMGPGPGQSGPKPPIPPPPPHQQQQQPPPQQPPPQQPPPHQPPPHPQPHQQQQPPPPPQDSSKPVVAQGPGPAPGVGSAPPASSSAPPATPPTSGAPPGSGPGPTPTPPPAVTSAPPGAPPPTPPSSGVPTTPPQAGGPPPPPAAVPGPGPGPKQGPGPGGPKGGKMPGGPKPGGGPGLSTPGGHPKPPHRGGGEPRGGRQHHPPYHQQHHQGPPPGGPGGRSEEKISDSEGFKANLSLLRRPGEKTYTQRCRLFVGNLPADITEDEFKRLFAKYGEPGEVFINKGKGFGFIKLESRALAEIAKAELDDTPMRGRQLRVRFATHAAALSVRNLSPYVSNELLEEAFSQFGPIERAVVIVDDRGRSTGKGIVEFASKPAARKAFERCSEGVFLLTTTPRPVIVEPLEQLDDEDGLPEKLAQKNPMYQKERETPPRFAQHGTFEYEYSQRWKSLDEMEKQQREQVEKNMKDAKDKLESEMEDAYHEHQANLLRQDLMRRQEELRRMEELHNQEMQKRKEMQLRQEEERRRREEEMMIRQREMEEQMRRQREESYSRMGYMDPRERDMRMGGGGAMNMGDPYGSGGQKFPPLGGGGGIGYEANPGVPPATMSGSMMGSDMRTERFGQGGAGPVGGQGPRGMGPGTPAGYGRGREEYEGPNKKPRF
# Target: T1, PSF (polypyrimidine tract-binding …)
# Assay: co-IP; endogenous proteins; HRMECs exposed to hypoxia (3 h, or a time course of 30 to 150 min); RIPA lysis; total cell lysates precipitated with anti-PSF antibody and protein G/A-Sepharose; blot with anti-HIF-1α, anti-PSF or anti-Hakai; cells untreated or transfected with scrambled siRNA, PSF siRNA or pcDNA-His-PSF
# Conditions: partners not purified
binder,measurement,value
"HIF-1α (hypoxia-inducible factor-1 alpha), endogenous (natural protein, HIF-1α, endogenous in human retinal microcapillary endothelial cells (HRMECs); source: endogenous, HRMEC total cell lysate or nuclear lysate) not shown",fold of precipitated HIF-1α against the vehicle group (90 min hypoxia),~4 fold
